The whole screen tested about 410,000 compounds, of which about 5,000 (1.2%) were called active. The shares of active, inactive and inconclusive entries below differ from those in the screen. The call rests on the fitted dose curve; in most records, active means well fitted inhibition curve with a large enough effect; inconclusive means small, poorly fitted or top-dose-only effect; inactive means no such curve, though single readings can be large or run the other way. A potency beside an inconclusive call is a rough fit, not a confirmed value.
Test: qHTS for Inhibitors of TGF-b; further: nearly all actives have a fitted effect of over 65% in size
Details: HepG2 CAGA-GFP TGF-b/SMAD3 reporter, GFP fluorescence, 18 h, TGF-beta stimulated, 500 pg/mL final; series mostly up to 46.1 µM; activity, negative = inhibition: at the top concentration
Procedure, shortened: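 Smad-responsive CAGA-GFP expression was quantified in HEPG2 cells exposed to compounds and 500 pg/mL final TGF-beta for 18 h at 37 degrees C; unstimulated wells defined full inhibition.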
On the % scale 0 is the no-effect control and ±100 the full control effect; potency means the concentration at half of the fitted maximal effect; tags describe the fitted curve by direction and shape.

| Compound | activity, negative = inhibition | Potency |
| --- | --- | --- |
| O=C(NC(=S)N1CCCCCC1)c1ccccc1 | inactive: -23.6% | – |
| CCCCCCSc1nnc2c(n1)OC(C)Nc1ccc(Br)cc1-2 (centres undefined) | inactive: 3.51% | – |
| CC1(C)C2CC=C(/C=N/NC(=S)NCCc3ccccc3)C1C2 (centres undefined) | – | inconclusive: 35.5 µM [inhibitor, single point] |
| O=C(CSC(=S)N1CCCC1)c1cc(Br)cc(Br)c1O | – | inconclusive: 35.5 µM [inhibitor, single point] |
| COc1ccccc1/C=C1\SC(=S)N(CCC(=O)Nc2nnc(C)s2)C1=O | – | inconclusive: 0.562 µM [inhibitor, full curve, poor fit] |
| COc1ccc(Nc2nc3cc(-c4sccc4C)sc3c(=O)n2C)cc1OC | – | inconclusive: 11.2 µM [inhibitor, partial curve] |
| O=C(NCCN1CCN(Cc2ccccc2)CC1)Nc1cc(Cl)cc(Cl)c1 | – | inconclusive: 35.5 µM [inhibitor, single point] |
| COC(=O)c1c(NS(=O)(=O)c2ccc3ccccc3c2)sc2c1CCCC2 | – | inconclusive: 35.5 µM [inhibitor, single point] |
| O=C(Nc1nccs1)C1CCCN(S(=O)(=O)c2cccc3cccnc23)C1 (centres undefined) | inactive: -28.6% | – |
| O=C(Cc1ccc2c(c1)OCCO2)N1CCN(S(=O)(=O)c2ccccc2C(F)(F)F)CC1 | – | inconclusive: 25.1 µM [inhibitor, single point] |
| CN(CC(=O)Nc1cccc(F)c1)C(=O)c1cccc(S(=O)(=O)N2CCN(c3ccc(F)cc3)CC2)c1 | – | active: 12.6 µM |
| OC(COc1ccc(Cl)cc1)CN1C2=NCCCN2c2ccccc21 (centres undefined) | inactive: 42.2% | – |
| C[C@H](O)[C@@H]1CN2CCc3c([nH]c4ccccc34)[C@@H]2C[C@@H]1N(C)C(=S)NCCc1ccccc1 | – | inconclusive: 12.6 µM [inhibitor, partial curve, poor fit] |
| S=C(NCCc1ccccc1)Nc1cccc2cnccc12 | – | inconclusive: 22.4 µM [inhibitor, single point] |
| Cc1ccc(-c2nnn(CC(=O)N(CC3CCCO3)C(C(=O)NC(C)(C)C)c3ccc(F)cc3)n2)o1 (centres undefined) | – | inconclusive: 0.447 µM [inhibitor, full curve, poor fit] |
| Cc1ccc(NC(=O)c2nc(S(=O)(=O)Cc3ccccc3C)ncc2Cl)cc1C | – | active: 7.08 µM |
| Cc1c(Cl)cnc(NC(=O)COC(=O)c2ccncc2)c1Cl | inactive: 2.8% | – |
| Cc1ccc(/C=C(\NC(=O)c2ccccc2)C(=O)NC2CCN(Cc3ccccc3)CC2)o1 | – | inconclusive: 14.1 µM [inhibitor, partial curve, poor fit] |
| O=C1NC(=O)N(c2ccc(Cl)cc2)C(=O)/C1=C/c1ccc2c(c1)CCN2Cc1ccccc1Cl | – | inconclusive: 20 µM [inhibitor, single point] |
| CN(C)CCCN(C(=O)COc1ccc(Cl)cc1)c1nc2ccc(F)cc2s1 | inactive: -11.9% | – |
| COc1ccc(N=c2cc(-c3ccc(O)cc3)oc3ccccc23)cc1 | – | inconclusive: 35.5 µM [inhibitor, single point] |
| Cn1c(=O)c2c(nc(N3CCOCC3)n2Cc2ccc(Br)cc2)n(C)c1=O | inactive: -1.4% | – |

| Compound | activity, negative = inhibition | Potency |
| --- | --- | --- |
| CCO/C(=C/c1sc2ccc(OC)cc2[n+]1CCCS(=O)(=O)[O-])CC | inactive: -4.81% | – |
| Cc1ccc2nc(COc3ccc(N(C)S(=O)(=O)c4ccccc4)cc3)cc(=O)n2c1 | – | inconclusive: 17.8 µM [inhibitor, single point] |
| CCC(C(=O)N1CCN(c2cc(C)ccc2C)CC1)n1nc(C)n2c(cc3occc32)c1=O (centres undefined) | – | inconclusive: 12.6 µM [inhibitor, partial curve] |
| CCOC(=O)Cn1c(=O)n(C2CCCCC2)c2nc(-c3ccc(C(C)C)cc3)nc(C(N)=O)c21 | – | inconclusive: 6.31 µM [inhibitor, single point] |
| CCOC(=O)CNc1nc(C#N)nc(N2CCOCC2)n1 | – | inactive |
| Cc1ccc2c(CN3CCN(C(=O)c4ccc(Br)cc4)CC3)cc(=O)oc2c1 | – | inconclusive: 20 µM [inhibitor, partial curve, poor fit] |
| C=CCOc1c(OC)cc(/C=N/Nc2cccc(C(=O)O)c2)c(Br)c1Br | – | inconclusive: 20 µM [inhibitor, single point] |
| CC(C)N(Cc1nc(-c2ccc(Cl)cc2)no1)C(=O)CCC1CCCC1 | – | inconclusive: 17.8 µM [inhibitor, partial curve, poor fit] |
| CCOc1cc(CNc2ccccc2)cc(Br)c1OCC(=O)NC(C)(C)C | – | inconclusive: 35.5 µM [inhibitor, single point] |
| O=C(CSc1nnc(CNC(=O)c2ccco2)o1)Nc1cccc(F)c1 | inactive: -3.83% | – |
| COc1ccc(-c2cccc(NS(=O)(=O)c3ccc([N+](=O)[O-])cc3)c2)nn1 | – | inconclusive: 35.5 µM [inhibitor, single point] |
| Cc1ccc([C@H]2C(C(=O)O)=CC[C@@H](c3ccc(C(C)C)cc3)N2S(=O)(=O)c2ccc(C)cc2)cc1 | – | inconclusive: 25.1 µM [inhibitor, single point] |
| O=c1[nH]c(C2CCCN(S(=O)(=O)c3ccc(F)cc3)C2)nc2c1nnn2Cc1ccc(F)cc1 (centres undefined) | – | inconclusive: 12.6 µM [inhibitor, partial curve, poor fit] |
| C[C@H](CO)N1C[C@H](C)[C@@H](CN(C)S(=O)(=O)c2ccccc2)Oc2ccc(NC(=O)C3CCCCC3)cc2C1=O | – | inconclusive: 35.5 µM [inhibitor, partial curve, poor fit] |
| COc1cc([N+](=O)[O-])c2ncsc2c1 | inactive: 0.962% | – |
| CSCC[C@H](NC(=O)COc1ccc(Cl)cc1)c1nc2ccccc2[nH]1 | – | inconclusive: 12.6 µM [inhibitor, single point] |
| O=C(CSc1nc2ccccc2nc1SCC(=O)N1CCOCC1)N1CCOCC1 | inactive: -13.3% | – |
| CCc1ccc(NC(=O)Cn2c(=O)n(-c3ccc(OC)cc3)c(=O)c3ccc(C(=O)NCc4ccc(C)cc4)cc32)cc1 | inactive: 0% | – |
| COc1cc(CNc2ncnc3c2[nH]c2ccc(C)cc23)cc(OC)c1 | – | inconclusive: 15.8 µM [inhibitor, single point] |
| O=C1c2ccccc2C(=O)N1S(=O)(=O)c1ccccc1 | inactive: 2.73% | – |
| Cc1oc(C(C)(C)C)cc1C(=O)N1CCN(c2ncccc2C(F)(F)F)CC1 | – | inconclusive: 28.2 µM [inhibitor, single point] |
| c1ccc2c(c1)CCN(c1nc(CN3CCOCC3)nc3sc4c(c13)CCCC4)C2 | – | inconclusive: 12.6 µM [inhibitor, partial curve, poor fit] |

| Compound | activity, negative = inhibition | Potency |
| --- | --- | --- |
| COc1ccc(CC(N)c2csc(Nc3ccccn3)n2)cc1 (centres undefined) | – | inconclusive: 35.5 µM [inhibitor, single point] |
| O=C(c1cc(-c2ccco2)nc2ccccc12)N1CCN(c2ccc(F)cc2)CC1 | – | inconclusive: 15.8 µM [inhibitor, single point] |
| Cc1cc(Cl)n2c(nc3cc(F)c(F)cc32)c1C#N | – | active: 6.31 µM |
| Nc1[nH][nH]c(=O)c1N=Nc1cccc(Cl)c1 | – | inconclusive: 1.41 µM [inhibitor, partial curve] |
| Cc1ccc(Cl)c(NC(=O)COC(=O)c2ccccc2C(=O)c2ccc(Cl)c([N+](=O)[O-])c2)c1Cl | – | inconclusive: 35.5 µM [inhibitor, single point] |
| COc1ccc(C2CC(=O)c3c(C)nc(N4CCN(Cc5ccccc5)CC4)nc3C2)cc1OC (centres undefined) | – | inconclusive: 11.2 µM [inhibitor, partial curve, poor fit] |
| C=CC(COCc1ccccc1)N([C@@H](Cc1ccccc1)C(=O)OC)S(=O)(=O)c1ccccc1Br (some centres undefined) | – | inconclusive: 8.91 µM [inhibitor, partial curve, poor fit] |
| CCNc1nc2c(c(=O)n(Cc3ccccc3)c(=O)n2C)n1Cc1ccccc1 | – | inconclusive: 1 µM [inhibitor, full curve, poor fit] |
| O=C(O)CCCCCN1C(=O)/C(=C\c2ccc(-c3ccc(Cl)cc3)o2)SC1=S | – | inconclusive: 25.1 µM [inhibitor, single point] |
| Cc1ccc(S(=O)(=O)Nc2ccccc2C(=O)N2CCN(C)CC2)cc1 | inactive: 12.5% | – |
| COc1ccc(CC(N)c2csc(NC(=O)Nc3cccc(C(F)(F)F)c3)n2)cc1 (centres undefined) | – | inconclusive: 20 µM [inhibitor, single point] |
| Cc1cc(C)c(Cn2c(C3CC(=O)N(c4ccc(F)cc4)C3)nc3ccccc32)c(C)c1 (centres undefined) | – | inconclusive: 1 µM [inhibitor, full curve, poor fit] |
| COc1ccccc1C1C([N+](=O)[O-])=CC([N+](=O)[O-])=CN1C (centres undefined) | inactive: 4.95% | – |
| CC(C)OC(=O)c1c(-c2ccccc2)c(-c2ccccc2)nn(C)c1=O | – | inconclusive: 35.5 µM [inhibitor, single point] |
| Cc1cccc(OCCCc2c(C)n[nH]c2C)c1 | – | inconclusive: 11.2 µM [inhibitor, partial curve] |
| [O-][n+]1ccccc1SC/C=C/c1ccccc1 | – | inconclusive: 35.5 µM [inhibitor, single point] |
| NC(=S)N/N=C/c1cn(-c2ccccc2)nc1-c1cccnc1 | – | inconclusive: 35.5 µM [inhibitor, partial curve, poor fit] |
| Cc1ccc(/C(=N/Nc2nc3ccccc3s2)C2=C(O)c3ccccc3C2=O)cc1 | inactive: -5.7% | – |
| Cc1onc(-c2ccccc2Cl)c1C(=O)N(Cc1ccc(N(C)C)cc1)C(C)C | – | inconclusive: 14.1 µM [inhibitor, partial curve, poor fit] |
| CC1CCC2(CC1)NC(=O)N(CC(=O)Nc1ccc3c(c1)CCC3)C2=O (centres undefined) | – | inconclusive: 3.55 µM [inhibitor, partial curve, poor fit] |

Source: PubChem BioAssay AID588855 (National Center for Advancing Translational Sciences (NCATS), 2011)
